# In ChEMBL document CHEMBL4888484, “Replenishing the malaria drug discovery pipeline: Screening and hit evaluation of the MMV Hit Generation Library 1 (HGL1) against asexual blood stage Plasmodium falciparum ,using a nano luciferase reporter read-out” (2022):
# The whole screen tested about 150,000 compounds, of which about 540 (0.36%) showed an effect of 50% or more. Some of the results follow.
# Tested on: Plasmodium falciparum
# Test: Primary screen in NF54 nanoGlo assay, in single point, at 2uM, 72h; a lower Z score goes with more inhibition
# Format: functional, Erythrocyte
# Settings: timepoint 72 hour
SMILES,% Inhibition [%],Z score
CCc1cc(C(=O)N2CC[C@@]3(CCCN(Cc4cccc(OC)c4)C3)C2)on1,-5,0.79
Cc1cc(C#N)ccc1S(=O)(=O)N1CC(=O)Nc2c(C)ccnc21,-4,0.48
CCC(=O)N1CCCN(CCc2ccc(CC)cc2)CC1,-3,0.42
CC(C)(C)OC(=O)N1CCN(C2CCCN(C(=O)C3CC3c3ccco3)C2)C(=O)C1 (centres undefined),-7,0.62
CCn1cnnc1CN1CCC2(CCC(=O)N(CCOC)C2)CC1,1,-0.19
Cc1cn(-c2c(F)cccc2F)nc1C(=O)N(C)CC1(O)CCCC1,-2,0.3
CCc1cc(C(=O)NCCN2CCOCC2)cs1,-7,1.05
O=C(C[C@H](c1ccc(F)cc1)c1c[nH]c2ccccc12)N1CCCC1,-9,1.18
O=C(CN(CC1CC1)C(=O)C1CCCC1)Nc1nc(-c2ccccc2)cn1-c1ccc(F)c(Cl)c1,-9,1.27
C[C@@H](c1ccccn1)N(C)c1cc(NCC2CC2)ncn1,-9,0.79
Cc1nc2c(NCc3csc4c3CCCC4)ncnc2o1,0,0.04
Cn1c(=O)n(CC(=O)NCCCN2CCOCC2)c(=O)c2cnc(-c3ccccc3)nc21,-5,0.8
COCCn1cc(NC(=O)C2CCC(N3CCOCC3)CC2)cn1 (centres undefined),-18,2.77
CCOc1c(Br)cc(C2Nc3ccc(C)cc3[C@H]3OCC[C@@H]23)cc1OC (some centres undefined),-3,0.54
c1ccc(-c2cc3c(N4CCn5ccnc5C4)ncnc3s2)cc1,1,-0.13
CC[C@@](C)(C#N)NC(=O)c1ccc(-c2ccco2)nc1C,-11,1.43
COCCOC[C@]1(CNC(=O)c2ccc(OC)cc2)C[C@@H](O)[C@@H](O)C1,26,-2.94
COc1cccc(-c2nnc(NC(=O)CCN(C(=O)c3ccccc3F)C3CCCCC3)s2)c1,-17,2.4
C=CCNC(=O)Cc1nnc2ccc(-c3nc(CC)no3)cn12,-2,0.29
COc1ccc(C2=C[C@@H](c3ccccc3Cl)n3nc(-c4ccc(Cl)cc4)nc3N2)cc1,-8,1.09
COc1cccc(CN2CC(C(=O)NC3CC4CCC3C4)CC2=O)c1 (centres undefined),-3,0.32

SMILES,% Inhibition [%],Z score
CC(C)=CCN1C(=O)[C@@H]2CC[C@H]1CN(C(=O)c1ccc3c(c1)OCO3)C2,-9,0.82
C[C@H](NC(=O)c1ccccc1)C(C)(C)C,3,-0.42
O=C(N[C@@H]1CCCc2c(F)cc(F)cc21)c1cc2n(n1)CCO2,9,-1.16
Cc1ccccc1Cn1nnc2cc(C(=O)NC3CCN(Cc4ccccc4)CC3)ccc21,-17,1.71
COC1CCC(N(C)S(=O)(=O)C[C@H]2CCOC2)CC1 (some centres undefined),3,-0.37
COCC[C@]1(NS(=O)(=O)c2ccccc2)CCN(Cc2cccn2C)C1,-12,2.2
O=C(Nc1ccccn1)C1CN(C(=O)c2cccs2)C1,-11,1.75
CC(C)(C)C(=O)N1CCC2(CC1)OCC(C(=O)NCC1CCCO1)N2C(=O)c1ccc(F)cc1 (centres undefined),5,-0.56
CCn1nccc1[C@H]1OCC[C@@H]1NC(=O)c1ccnc2[nH]c(C)nc12,-9,1.29
CC1CCC(NC(=O)CN(C)S(=O)(=O)c2ccc3c(c2)C[C@H](C)N3C(=O)C2CCC2)CC1 (some centres undefined),-2,0.27
CCn1c([C@H]2CCCN(Cc3nc(C)c[nH]3)C2)nn(CCN(C)C)c1=O,-2,0.24
Cc1cc(=O)c2cc(C(=O)NCc3ccccn3)ccc2[nH]1,4,-0.52
Cc1nc2c(OC(=O)OC(C)(C)C)cccc2o1,-4,0.52
Cc1ccc2nc(CN3CCCN4CCC[C@H]4C3)[nH]c2c1,-16,2.39
CCN(CCO)C(=O)NCC1CCCC1,0,0.04
O=C(Nc1ccc2[nH]c(=O)[nH]c2c1)c1ccc(-c2ccccc2F)o1,-5,0.4
N#CC1COCCN1C(=O)C1CCCN(C(=O)NC2CCCC2)C1 (centres undefined),-13,2.03
O=C(NC(=O)c1cccs1)Nc1ccc(OC(F)(F)Cl)cc1,1,-0.1
Cc1ccc2oc(-c3nc(CC(C)C)no3)cc2n1,-17,1.87
Cc1ccccc1OC1CN(C(=O)[C@H]2CC(=O)N(c3cccc(O)c3)C2)C1,4,-0.4
COC(=O)C1CCN(C(=O)N[C@H]2CC(=O)N(c3ccc4c(c3)OCCO4)C2)CC1,13,-1.66

SMILES,% Inhibition [%],Z score
CC(N)C1CCCN(C(=O)C2CCN(c3cc(Cl)ccc3Cl)C2=O)C1 (centres undefined),-8,1.17
O=C(Cc1cccs1)Nc1ccc(OCc2nnc(-c3ccccc3)o2)cc1,-2,0.25
COc1ccc(NC(=O)CN2CCc3c(c(=O)c4cc(C)ccc4n3C)C2)cc1,-2,0.23
CN(Cc1csc(C(C)(C)O)n1)C(=O)c1cn(C)nc1C1CCC1,-10,1.29
CC1CCC(NC(=O)c2ccc3c(c2)NC(=O)c2ccccc2N3)CC1 (centres undefined),-2,0.46
Cc1cccc(N(CC#N)CC(=O)N2CCCCC2)c1,1,-0.15
Cc1ncc(S(=O)(=O)NC(=O)c2cnn3c2C[C@@H](C)CC3)s1,-7,1.09
COc1ccc([C@@H](NC(=O)Nc2ccc3nn[nH]c(=O)c3c2)C(C)C)cc1OC,-6,0.82
CCCn1nccc1NC(=O)c1n[nH]c(C)c1C,-4,0.46
COc1cccc(-c2cc(C(=O)N(CCc3ccccc3)Cc3ccccc3)nc3cc(C(C)(C)C)nn23)c1,6,-1.11
CCO[C@@H](C)c1noc(CNC(=O)N(C)C2CC2)n1,4,-0.49
COC(=O)[C@H](C)N(Cc1cncs1)C1CCC1,8,-1.12
CC(Cc1ccsc1)N1CCN(CC(=O)N2CCCCC2C)CC1 (centres undefined),-5,0.53
Cc1ccc(Cn2c(=O)n(CCNC(=O)CC(C)C)c3ncccc32)cc1,6,-0.65
CCOC(=O)C1CCCN(C(=O)C2CCN(c3ccccc3C)C2=O)C1 (centres undefined),-16,1.52
CC1(C(=O)N[C@H]2C[C@H](c3ccc(F)cc3)C2)COC1,-12,2.19
C[C@@H](CCO)Nc1ncc(Cl)cc1Cl,5,-0.79
Cc1nc(CNC(=O)[C@H]2CCC(=O)N(C3CCCCCC3)C2)n[nH]1,2,-0.37
CS(=O)(=O)N[C@H]1CCN(CC#Cc2ccc(F)cc2)C1,0,0.02
Cc1c(N[C@H](c2ccccc2O)c2c(C)n(C)n(-c3ccccc3)c2=O)c(=O)n(-c2ccccc2)n1C,14,-2.12
COc1ccc(CCN=C(N(C)C)N(C)C)c(F)c1,-21,2.14

SMILES,% Inhibition [%],Z score
CC(C)C(NC(=O)C1CCCCC(=O)N1)C1(CO)CCC1 (centres undefined),-16,1.66
Cc1ccc(C(=O)C(=O)NC2CCCC2)cc1,4,-0.52
Cc1nc2ccc(CNS(=O)(=O)N3CCCC3)cc2[nH]1,6,-0.84
Cc1nc(C)n(CCCNC(=O)c2cccc(-c3ccc(=O)[nH]c3)c2)n1,-7,1.12
COc1cc(-c2ccno2)ccc1S(=O)(=O)NCc1ccc(C)o1,-10,1.7
COc1ccc(-c2cc(N3CC[C@H](NC(=O)c4ccc(F)c(F)c4)C3)[nH]n2)cc1,-10,1.02
CCC[C@H](C)c1nc(N2CCCN(C(=O)C(C)(C)C)CC2)c2c(C)nn(-c3ccc(F)cc3)c2n1,2,-0.26
O=C(OCCOCC(F)(F)F)c1ccnc(C2CC2)n1,-7,0.88
Cc1cnc(C(=O)N2CCC(F)(c3ccccc3Cl)CC2)cn1,-11,1.28
COC(C)(C)CCNC(=O)CC[C@H](C)N1CCN(C)CC1,1,-0.15
O=C(CCc1nc2ccccc2s1)N1CCC2(CC1)C[C@@H](N1CCOCC1)CCO2,-10,1.29
CC(C)c1cc(C(=O)N[C@H]2CCCOc3c(Cl)cccc32)nn1C,-7,1.39
O=c1[nH]nc2ccc(N3CCC4(CCCCC4)C3)nn12,6,-0.56
COc1cccc(C(=O)N2[C@H](C(=O)NC3CC3)COC23CCN(C(=O)c2cccc(F)c2)CC3)c1,3,-0.42
FC(F)(F)c1n[nH]c2nc3ccc(Br)cc3c(-c3ccccc3)c12,-3,0.47
CCN(Cc1ccccc1)c1ccc(C(=O)O)cc1NS(=O)(=O)c1cc(C)c(C)cc1C,-15,1.45
Cc1ccc2c(Cl)c(C(=O)N(Cc3cccc(Cl)c3)[C@H]3CCS(=O)(=O)C3)sc2c1,-2,0.17
CCc1ccc([C@@H]2COCCN2c2ncnc3[nH]ncc23)o1,-37,4.31
CC(C)(CNC(=O)c1cc(=O)[nH]c(C2CC2)n1)c1ccccc1F,-6,0.74
